Reference: patent US20240376128A1, “N-CYCLOPROPYLPYRIDO [4, 3-D] PYRIMIDIN-4-AMINE DERIVATIVES AND USES THEREOF” (Jacobio Pharmaceuticals Co., Ltd., priority 2021, published 2024)

How the values were obtained:
[1] = molecular target: K-Ras G12A (Homo sapiens, UniProt P01116, G12A); test: SOS1 catalyzed nucleotide exchange assay (GDP form K-Ras), TR-FRET; conditions: read-out: Biochemical assays, IC50, K-Ras G12A GDP
Experimental: The parameters were F486: Excitation 340 nm, Emission 486 nm, Lag time 100 pas, Integration time 200 pas; F515: Excitation 340 nm, Emission 515 nm, Lag time 100 pas, Integration time 200 pas. TR-FRET ratios for each individual wells were calculated by equation: TR-FRET ratio=(Signal F515/Signal F486)*10000.

[2] = molecular target: K-Ras WT (Homo sapiens, UniProt P01116); test: GTP-K-Ras (GppNp-K-Ras) and cRAF interaction assay, HTRF; conditions: read-out: Biochemical assays, IC50, K-Ras WT GppNp
Source text: GppNp is an analog of GTP.

SMILES: [2H]C([2H])([2H])N(c1nc(OC([2H])([2H])[C@@]23CCC([2H])([2H])N2C[C@]([2H])(F)C3)nc2c(F)c(-c3cc(O)cc4ccc(F)c(C#C)c34)ncc12)C1CC1 [Compound 26, 4-(4-(cyclopropyl(methyl-d3)amino)-8-fluoro-2-(((2R,7aS)-2-fluorotetrahydro-1H-pyrrolizin-7a(5H)-yl-2,5,5-d3)methoxy-d2)pyrido[4,3-d]pyrimidin-7-yl)-5-ethynyl-6-fluoronaphthalen-2-ol]
- IC50 [1]: 13.5 nM
- IC50 [2]: 369 nM
